{"source": "the supplement of paper PMC8728848", "assay_in_all_cases": "glycan array binding signal (z-score within array); higher = stronger binding", "settings_in_all_cases": "glycan notation: IUPAC condensed, linker removed", "key": {"[1]": {"target": "Gal6S(b1-4)Glc6S", "method_in_brief": "(§1)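 The Consortium for Functional Glycomics database supplied 3228 glycan arrays, of which those lacking an available protein sequence were dropped. The binding signal, a within-array Z-score, was averaged across arrays of the same protein sequence and across linkers. Negative scores can be read as non-binding.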"}, "[2]": {"target": "Gal6S(b1-4)GlcNAc", "method_in_brief": "as §1"}, "[3]": {"target": "Gal6S(b1-4)GlcNAc6S", "method_in_brief": "as §1"}, "[4]": {"target": "GalNAc(a1-3)Gal", "method_in_brief": "as §1"}, "[5]": {"target": "GalNAc(a1-3)GalNAc", "method_in_brief": "as §1"}, "[6]": {"target": "GalNAc(a1-3)GalNAc(b1-3)Gal(a1-4)Gal(b1-4)Glc", "method_in_brief": "as §1"}, "[7]": {"target": "GalNAc(a1-3)GalNAc(b1-3)Gal(a1-4)Gal(b1-4)GlcNAc", "method_in_brief": "as §1"}, "[8]": {"target": "GalNAc(b1-3)Gal", "method_in_brief": "as §1"}, "[9]": {"target": "GalNAc(b1-3)Gal(a1-4)Gal(b1-4)GlcNAc", "method_in_brief": "as §1"}, "[10]": {"target": "GalNAc(b1-3)Gal(a1-4)Gal(b1-4)GlcNAc(b1-3)Gal(b1-4)Glc", "method_in_brief": "as §1"}, "[11]": {"target": "GalNAc(b1-3)Gal(a1-6)Gal(b1-4)Glc", "method_in_brief": "as §1"}, "[12]": {"target": "GalNAc(b1-3)GalNAc", "method_in_brief": "as §1"}, "[13]": {"target": "GalNAc(b1-3)GlcNAc", "method_in_brief": "as §1"}, "[14]": {"target": "GalNAc(b1-4)Gal(b1-4)Glc", "method_in_brief": "as §1"}, "[15]": {"target": "GalNAc(b1-4)GlcNAc", "method_in_brief": "as §1"}, "[16]": {"target": "GalNAc(b1-4)GlcNAc(b1-2)Man", "method_in_brief": "as §1"}, "[17]": {"target": "GalNAc(b1-4)GlcNAc(b1-2)Man(a1-3)[GalNAc(b1-4)GlcNAc(b1-2)Man(a1-6)]Man(b1-4)GlcNAc(b1-4)GlcNAc", "method_in_brief": "as §1"}, "[18]": {"target": "GalNAc(b1-4)GlcNAc(b1-3)GalNAc(b1-4)GlcNAc", "method_in_brief": "as §1"}, "[19]": {"target": "GalNAc(b1-4)GlcNAc6S", "method_in_brief": "as §1"}, "[20]": {"target": "GalNAc(b1-6)GalNAc", "method_in_brief": "as §1"}, "[21]": {"target": "GalNAc3S(b1-4)GlcNAc", "method_in_brief": "as §1"}, "[22]": {"target": "GalNAc3S(b1-4)GlcNAc3S", "method_in_brief": "as §1"}, "[23]": {"target": "GalNAc3S(b1-4)[Fuc(a1-3)]GlcNAc", "method_in_brief": "as §1"}, "[24]": {"target": "GalNAc4S6S(b1-4)GlcNAc", "method_in_brief": "as §1"}, "[25]": {"target": "GalNAc6S(b1-4)GlcNAc", "method_in_brief": "as §1"}, "[26]": {"target": "Glc(a1-4)Glc", "method_in_brief": "as §1"}, "[27]": {"target": "Glc(a1-4)Glc(a1-4)Glc(a1-4)Glc", "method_in_brief": "as §1"}, "[28]": {"target": "Glc(a1-6)Glc(a1-6)Glc", "method_in_brief": "as §1"}, "[29]": {"target": "Glc(a1-6)Glc(a1-6)Glc(a1-6)Glc", "method_in_brief": "as §1"}, "[30]": {"target": "Glc(b1-4)Glc", "method_in_brief": "as §1"}, "[31]": {"target": "Glc(b1-6)Glc", "method_in_brief": "as §1"}, "[32]": {"target": "GlcA(b1-3)Gal", "method_in_brief": "as §1"}, "[33]": {"target": "GlcA(b1-3)GlcNAc", "method_in_brief": "as §1"}, "[34]": {"target": "GlcA(b1-6)Gal", "method_in_brief": "as §1"}, "[35]": {"target": "GlcA3S(b1-3)Gal(b1-4)GlcNAc(b1-2)Man", "method_in_brief": "as §1"}, "[36]": {"target": "GlcA3S(b1-3)Gal(b1-4)GlcNAc(b1-3)Gal(b1-4)Glc", "method_in_brief": "as §1"}, "[37]": {"target": "GlcNAc(a1-3)Gal(b1-4)GlcNAc", "method_in_brief": "as §1"}}, "note": "Some of the results follow."}
{"binder": "GS7807E-bfa-538-23-538 (Bacteroides fragilis) (protein) TDSFESFNTNEAGFDNDSKKQDFNYYGIPLGIIQQGIYFNYDWGSGKNWPFQTMQNLGADLFSGYVHDFNPFNEGKNNSTYYMMDGWNGSTWDNTYGYIMPEVQKSETINEKDNIGFFGITKILKVELMHRLSDLYGPIVYTQFGSKTGSTPDTQQEAYKAFFNDLDTGIAKIREYQKANPDIESFAKFDILMPQGKRTFSEWIRFANSLRLRLAVRIAMADSKLAVAEAQKALTDEEGLLEGNDEVVAVSTSSGYTNPFGEINKAWGEVFMNANMESLLVGYEDPRMEKYFDKATGSDATSLIDYKGTYKGIRQGTGFSHKNYNGHSKSTITQQTDAVLMTPAEVWFLRAEAALRGWSSESVKDCYEKGVKASFAQWGAAGAEAYLESDRKPSDYVDAFKAANNVKAVNTLTPKWDDAAGNEDKLGRIITQKWLAMFPEGGEAWAEQRRTGYPRLFPVLVNQSEGTVDTNLGPRRLNFFVGIKTTNPEQYTQLVNALGGIDNCGTRLWWDTGRNF", "values": [{"measurement": "glycan array binding signal (z-score)", "setting": "[1]", "result": 1.84}, {"measurement": "glycan array binding signal (z-score)", "setting": "[2]", "result": 1.23}, {"measurement": "glycan array binding signal (z-score)", "setting": "[3]", "result": -0.472}, {"measurement": "glycan array binding signal (z-score)", "setting": "[4]", "result": 0.863}, {"measurement": "glycan array binding signal (z-score)", "setting": "[5]", "result": 0.104}, {"measurement": "glycan array binding signal (z-score)", "setting": "[6]", "result": -0.533}, {"measurement": "glycan array binding signal (z-score)", "setting": "[7]", "result": -0.658}, {"measurement": "glycan array binding signal (z-score)", "setting": "[8]", "result": 1.46}, {"measurement": "glycan array binding signal (z-score)", "setting": "[9]", "result": -0.246}, {"measurement": "glycan array binding signal (z-score)", "setting": "[10]", "result": -0.54}, {"measurement": "glycan array binding signal (z-score)", "setting": "[11]", "result": 0.894}, {"measurement": "glycan array binding signal (z-score)", "setting": "[12]", "result": -0.682}, {"measurement": "glycan array binding signal (z-score)", "setting": "[13]", "result": 0.484}, {"measurement": "glycan array binding signal (z-score)", "setting": "[14]", "result": -0.452}, {"measurement": "glycan array binding signal (z-score)", "setting": "[15]", "result": 0.718}, {"measurement": "glycan array binding signal (z-score)", "setting": "[16]", "result": -0.041}, {"measurement": "glycan array binding signal (z-score)", "setting": "[17]", "result": 0.2}, {"measurement": "glycan array binding signal (z-score)", "setting": "[18]", "result": 0.955}, {"measurement": "glycan array binding signal (z-score)", "setting": "[19]", "result": -0.418}, {"measurement": "glycan array binding signal (z-score)", "setting": "[20]", "result": -0.682}, {"measurement": "glycan array binding signal (z-score)", "setting": "[21]", "result": -0.655}, {"measurement": "glycan array binding signal (z-score)", "setting": "[22]", "result": -0.697}, {"measurement": "glycan array binding signal (z-score)", "setting": "[23]", "result": 3.75}, {"measurement": "glycan array binding signal (z-score)", "setting": "[24]", "result": -0.65}, {"measurement": "glycan array binding signal (z-score)", "setting": "[25]", "result": -0.443}, {"measurement": "glycan array binding signal (z-score)", "setting": "[26]", "result": -0.685}, {"measurement": "glycan array binding signal (z-score)", "setting": "[27]", "result": -0.541}, {"measurement": "glycan array binding signal (z-score)", "setting": "[28]", "result": -0.697}, {"measurement": "glycan array binding signal (z-score)", "setting": "[29]", "result": -0.632}, {"measurement": "glycan array binding signal (z-score)", "setting": "[30]", "result": -0.412}, {"measurement": "glycan array binding signal (z-score)", "setting": "[31]", "result": -0.646}, {"measurement": "glycan array binding signal (z-score)", "setting": "[32]", "result": -0.712}, {"measurement": "glycan array binding signal (z-score)", "setting": "[33]", "result": -0.585}, {"measurement": "glycan array binding signal (z-score)", "setting": "[34]", "result": -0.128}, {"measurement": "glycan array binding signal (z-score)", "setting": "[35]", "result": -0.684}, {"measurement": "glycan array binding signal (z-score)", "setting": "[36]", "result": 0.65}, {"measurement": "glycan array binding signal (z-score)", "setting": "[37]", "result": -0.706}]}
